Data published in the supplement of paper PMC4967469.
pIC50: −log10 of the molar value. Lines with a small IC50 respond at low doses; a fit beyond the top or the lowest dose is shown as a bound at that dose. AUC sums up the same curve from the lowest dose to the 256-fold higher top dose: 1 means no effect, lower means more sensitive. For part of these data: Where the top dose is marked as inferred, it comes from the curve model; the source does not state it. For part of these data: Where an entry number is given, a second screen of the drug exists; the two often differ.

Tests used:
Assay in all cases: Viability of human cancer cell lines after 72 h of drug (GDSC screen)
[1] = compound: CCCS(=O)(=O)Nc1ccc(F)c(C(=O)c2c[nH]c3ncc(Cl)cc23)c1F [PLX4720]; conditions: top dose 10 µM
Method: (§1)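 Human cancer cell lines in 384-well plates, medium with 10% serum, drug for 72 h over a 256-fold dose range (nine 2-fold or five 4-fold steps up to the top dose). Adherent lines were fixed and stained with the nucleic acid dye Syto60, suspension lines read with resazurin; signal relative to control wells, capped at 0 and 100%. One two-parameter sigmoid per drug and line, fitted in a mixed model over all curves with the slope shared within a line.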

[2] = compound: CC(C)CC(=O)Nc1n[nH]c2c1CN(C(=O)C1CCN(C)CC1)C2(C)C [PHA-793887]; conditions: top dose 10.24 µM
Method: as §1

[3] = compound: C/C(=C\c1csc(C)n1)[C@@H]1C[C@@H]2O[C@]2(C)CCC[C@H](C)[C@H](O)[C@@H](C)C(=O)C(C)(C)[C@@H](O)CC(=O)O1 [Epothilone B]; conditions: top dose 0.032 µM; top dose inferred
Method: as §1

[4] = compound: C[C@@H](N)c1ccc(C(=O)Nc2ccnc3[nH]ccc23)cc1 [Y-39983]; conditions: top dose 20 µM; top dose inferred
Method: as §1

[5] = compound: NC(=O)Nc1sc(-c2ccc(F)cc2)cc1C(N)=O [TPCA-1]; conditions: top dose 20 µM
Method: as §1

[6] = screen: GDSC drug entry 1371, top dose inferred

Cell Line | AUC [1, 6] | pIC50 [1, 6] | AUC [2] | pIC50 [2] | AUC [3] | pIC50 [3] | AUC [4] | pIC50 [4] | AUC [5] | pIC50 [5] | AUC ([1]; screen: GDSC drug entry 1036) | pIC50 ([1]; screen: GDSC drug entry 1036)
NCI-H292 (lung adenocarcinoma, adherent) | 0.974 | < 5.00 | 0.948 | < 4.99 | 0.481 | 8.75 | 0.91 | < 4.70 | 0.597 | 5.61 | – | –
NCI-H358 (lung adenocarcinoma, adherent) | 0.932 | < 5.00 | 0.543 | 6.07 | 0.553 | 8.55 | 0.929 | < 4.70 | 0.635 | 5.51 | 0.887 | < 5.00
NCI-H441 (lung adenocarcinoma, adherent) | 0.901 | < 5.00 | 0.977 | < 4.99 | 0.544 | 8.56 | 0.974 | < 4.70 | 0.81 | 4.79 | – | –
NCI-H460 (large cell lung carcinoma, adherent) | 0.989 | < 5.00 | 0.99 | < 4.99 | 0.223 | 9.46 | 0.966 | < 4.70 | 0.906 | < 4.70 | 0.982 | < 5.00
NCI-H520 (lung squamous cell carcinoma, adherent) | 0.986 | < 5.00 | 0.607 | 5.90 | 0.571 | 8.50 | 0.915 | < 4.70 | 0.693 | 5.35 | 0.986 | < 5.00
NCI-H522 (lung adenocarcinoma, adherent) | 0.972 | < 5.00 | 0.979 | < 4.99 | 0.356 | 9.13 | 0.901 | < 4.70 | 0.896 | < 4.70 | 0.962 | < 5.00
NCI-H596 (lung adenocarcinoma, adherent) | 0.98 | < 5.00 | 0.853 | < 4.99 | 0.751 | 7.87 | 0.91 | < 4.70 | 0.84 | < 4.70 | 0.962 | < 5.00
NCI-H647 (non-small cell lung carcinoma, adherent) | 0.53 | 6.12 | 0.438 | 6.37 | 0.593 | 8.44 | 0.883 | < 4.70 | 0.849 | 4.79 | 0.963 | < 5.00
NCI-H650 (lung adenocarcinoma, adherent) | 0.98 | < 5.00 | 0.886 | < 4.99 | 0.812 | 7.71 | 0.928 | < 4.70 | 0.901 | < 4.70 | 0.928 | < 5.00
NCI-H661 (large cell lung carcinoma, adherent) | 0.98 | < 5.00 | 0.802 | 5.20 | 0.755 | 7.89 | 0.98 | < 4.70 | 0.934 | < 4.70 | 0.911 | < 5.00
NCI-H727 (lung carcinoid, adherent) | 0.97 | < 5.00 | 0.929 | < 4.99 | 0.495 | 8.72 | 0.951 | < 4.70 | 0.865 | < 4.70 | 0.838 | < 5.00
NCI-H810 (large cell lung carcinoma, adherent) | 0.92 | < 5.00 | 0.43 | 6.38 | 0.315 | 9.21 | 0.929 | < 4.70 | 0.856 | 4.82 | 0.985 | < 5.00
NCI-H838 (lung adenocarcinoma, adherent) | 0.985 | < 5.00 | 0.915 | < 4.99 | 0.755 | 7.95 | 0.967 | < 4.70 | 0.923 | < 4.70 | 0.985 | < 5.00
NCI-H841 (small cell lung carcinoma, adherent) | 0.986 | < 5.00 | 0.961 | < 4.99 | 0.844 | 7.64 | 0.957 | < 4.70 | 0.93 | < 4.70 | 0.975 | < 5.00
NCI-H1048 (small cell lung carcinoma, adherent) | 0.983 | < 5.00 | 0.853 | 5.17 | 0.662 | 8.27 | 0.957 | < 4.70 | 0.445 | 6.05 | 0.947 | < 5.00
NCI-H1435 (lung adenocarcinoma, semi-adherent) | 0.99 | < 5.00 | 0.993 | < 4.99 | 0.828 | 7.77 | 0.985 | < 4.70 | 0.948 | < 4.70 | 0.981 | < 5.00
NCI-H1437 (lung adenocarcinoma, adherent) | 0.983 | < 5.00 | 0.616 | 5.87 | 0.409 | 8.95 | 0.973 | < 4.70 | 0.931 | < 4.70 | 0.976 | < 5.00
NCI-H1563 (lung adenocarcinoma, adherent) | 0.974 | < 5.00 | 0.917 | < 4.99 | 0.903 | < 7.49 | 0.971 | < 4.70 | 0.765 | 5.06 | 0.979 | < 5.00
NCI-H1568 (lung adenocarcinoma, adherent) | 0.945 | < 5.00 | 0.907 | < 4.99 | 0.495 | 8.71 | 0.974 | < 4.70 | 0.914 | < 4.70 | 0.97 | < 5.00
NCI-H1573 (lung adenocarcinoma, adherent) | 0.989 | < 5.00 | 0.983 | < 4.99 | 0.923 | < 7.49 | 0.983 | < 4.70 | 0.945 | < 4.70 | – | –
NCI-H1623 (lung adenocarcinoma, adherent) | 0.983 | < 5.00 | 0.961 | < 4.99 | 0.79 | 7.75 | 0.979 | < 4.70 | 0.945 | < 4.70 | 0.985 | < 5.00
NCI-H1651 (lung adenocarcinoma, adherent) | 0.979 | < 5.00 | 0.987 | < 4.99 | 0.607 | 8.39 | 0.984 | < 4.70 | 0.982 | < 4.70 | 0.977 | < 5.00
